Data published in the supplement of paper PMC4604168 (melanoma cell lines).
The list shows a part of the results. Single values are uncertain, as repeats are few or missing.

tested on: WM1745; assay: cell count relative to DMSO control; melanoma cells; higher = more viable cells; settings: library dose: low library concentration; 72 h
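Note: cell number obtained by counting DAPI-stained nuclei in high-throughput microscope images with image analysis software, screen run in 1,536-well plates.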

Row | Compound | cell count [%]
1 | C[C@]12O[C@H](C[C@]1(O)CO)n1c3ccccc3c3c4c(c5c6ccccc6n2c5c31)CNC4=O [Lestaurtinib] + CN(NC(=O)CC(=O)NN(C)C(=S)c1ccccc1)C(=S)c1ccccc1 [STA4783] (first compound 0.004 µM, partner dose 0.006 µM) | 86.4
2 | C[C@]12O[C@H](C[C@]1(O)CO)n1c3ccccc3c3c4c(c5c6ccccc6n2c5c31)CNC4=O [Lestaurtinib] + C[C@]1(O)C[C@@H](c2nc(-c3ccc4ccc(-c5ccccc5)nc4c3)c3c(N)nccn32)C1 [OSI906] (first compound 0.004 µM, partner dose 0.4 µM) | 64.8
3 | C[As](C)SC[C@H](NC(=O)CC[C@H](N)C(=O)O)C(=O)NCC(=O)O [Darinaparsin] + C/C(O)=C(\C#N)C(=O)Nc1cc(Br)ccc1Br [LFM-A13] (first compound 0.4 µM, partner dose 2 µM) | 99
4 | C[C@]12O[C@H](C[C@]1(O)CO)n1c3ccccc3c3c4c(c5c6ccccc6n2c5c31)CNC4=O [Lestaurtinib] + Nc1ccn([C@@H]2O[C@H](CO)[C@@H](O)C2(F)F)c(=O)n1 [gemcitabine] (first compound 0.004 µM, partner dose 0.0004 µM) | 64
5 | N.N.[Cl][Pt][Cl] [cisplatin] + C[As](C)SC[C@H](NC(=O)CC[C@H](N)C(=O)O)C(=O)NCC(=O)O [Darinaparsin] (first compound 1.6 µM, partner dose 0.4 µM) | 98.8
6 | Cn1cc(C2=C(c3cn(C4CCN(Cc5ccccn5)CC4)c4ccccc34)C(=O)NC2=O)c2ccccc21 [Enzastaurin] + O=C(Nc1cccc(Cl)c1)Nc1ncc(CCNc2ncnc3ccsc23)s1 [SNS314] (first compound 0.8 µM, partner dose 0.0008 µM) | 90.3
7 | N.N.[Cl][Pt][Cl] [cisplatin] + O=C(Nc1ccccc1)c1cc([N+](=O)[O-])ccc1Cl [GW9662] (first compound 1.6 µM, partner dose 2 µM) | 98
8 | Cn1cc(C2=C(c3cn(C4CCN(Cc5ccccn5)CC4)c4ccccc34)C(=O)NC2=O)c2ccccc21 [Enzastaurin] + Cn1cc(/C=C2\C(=O)Nc3cccnc32)c2ccccc21 [GW441756] (first compound 0.8 µM, partner dose 0.4 µM) | 89.7
9 | C[C@]12O[C@H](C[C@]1(O)CO)n1c3ccccc3c3c4c(c5c6ccccc6n2c5c31)CNC4=O [Lestaurtinib] + C=CCNC1=C2C[C@@H](C)C[C@H](OC)[C@H](O)[C@@H](C)/C=C(\C)[C@H](OC(N)=O)[C@@H](OC)/C=C\C=C(/C)C(=O)NC(=CC1=O)C2=O [Tanespimycin] (first compound 0.004 µM, partner dose 0.002 µM) | 94.1
10 | N.N.[Cl][Pt][Cl] [cisplatin] + C[C@@H]1CCN(C(=O)CC#N)C[C@@H]1N(C)c1ncnc2[nH]ccc12 [CP690550] (first compound 1.6 µM, partner dose 1 µM) | 96.8
11 | C[C@]12O[C@H](C[C@]1(O)CO)n1c3ccccc3c3c4c(c5c6ccccc6n2c5c31)CNC4=O [Lestaurtinib] + CCCS(=O)(=O)Nc1ccc(F)c(C(=O)c2c[nH]c3ncc(Cl)cc23)c1F [PLX4720] (first compound 0.004 µM, partner dose 0.08 µM) | 94.5
12 | C[C@]12O[C@H](C[C@]1(O)CO)n1c3ccccc3c3c4c(c5c6ccccc6n2c5c31)CNC4=O [Lestaurtinib] + O=C(Nc1cccc(Cl)c1)Nc1ncc(CCNc2ncnc3ccsc23)s1 [SNS314] (first compound 0.004 µM, partner dose 0.0008 µM) | 111
13 | C[C@]12O[C@H](C[C@]1(O)CO)n1c3ccccc3c3c4c(c5c6ccccc6n2c5c31)CNC4=O [Lestaurtinib] + Cc1cc(SCc2sc(-c3ccc(C(F)(F)F)c(F)c3)nc2C)ccc1OCC(=O)O [GW0742] (first compound 0.004 µM, partner dose 2 µM) | 89.5
14 | N.N.[Cl][Pt][Cl] [cisplatin] + C=CCNC1=C2C[C@@H](C)C[C@H](OC)[C@H](O)[C@@H](C)/C=C(\C)[C@H](OC(N)=O)[C@@H](OC)/C=C\C=C(/C)C(=O)NC(=CC1=O)C2=O [Tanespimycin] (first compound 1.6 µM, partner dose 0.002 µM) | 94.9
15 | C[As](C)SC[C@H](NC(=O)CC[C@H](N)C(=O)O)C(=O)NCC(=O)O [Darinaparsin] + Cn1c(Nc2ccc(C(F)(F)F)cc2)nc2cc(Oc3ccnc(-c4ncc(C(F)(F)F)[nH]4)c3)ccc21 [CHIR265] (first compound 0.4 µM, partner dose 0.08 µM) | 73
16 | C[C@]12O[C@H](C[C@]1(O)CO)n1c3ccccc3c3c4c(c5c6ccccc6n2c5c31)CNC4=O [Lestaurtinib] + COc1ccc(-c2ccc3c(N4CCOCC4)nc(N4C[C@@H](C)O[C@@H](C)C4)nc3n2)cc1CO [KU0063794] (first compound 0.004 µM, partner dose 0.02 µM) | 94.1
17 | C[C@]12O[C@H](C[C@]1(O)CO)n1c3ccccc3c3c4c(c5c6ccccc6n2c5c31)CNC4=O [Lestaurtinib] + c1cc(-c2cnn3cc(-c4ccc(OCCN5CCCCC5)cc4)cnc23)ccn1 [Dorsomorphin] (first compound 0.004 µM, partner dose 0.4 µM) | 88.6
18 | C[As](C)SC[C@H](NC(=O)CC[C@H](N)C(=O)O)C(=O)NCC(=O)O [Darinaparsin] + Cc1ccc(NC(=O)c2cccc(N(C)C)c2)cc1NC(=O)c1ccc(O)cc1 [ZM336372] (first compound 0.4 µM, partner dose 2 µM) | 112
19 | C[C@]12O[C@H](C[C@]1(O)CO)n1c3ccccc3c3c4c(c5c6ccccc6n2c5c31)CNC4=O [Lestaurtinib] + CN(c1ncccc1CNc1nc(Nc2ccc3c(c2)CC(=O)N3)ncc1C(F)(F)F)S(C)(=O)=O [PF562271] (first compound 0.004 µM, partner dose 0.08 µM) | 94.7
20 | C[As](C)SC[C@H](NC(=O)CC[C@H](N)C(=O)O)C(=O)NCC(=O)O [Darinaparsin] + Cc1cc(SCc2sc(-c3ccc(C(F)(F)F)c(F)c3)nc2C)ccc1OCC(=O)O [GW0742] (first compound 0.4 µM, partner dose 2 µM) | 92.9
21 | C[C@]12O[C@H](C[C@]1(O)CO)n1c3ccccc3c3c4c(c5c6ccccc6n2c5c31)CNC4=O [Lestaurtinib] + CC(=O)c1c(C)c2cnc(Nc3ccc(N4CCNCC4)cn3)nc2n(C2CCCC2)c1=O [palbociclib] (first compound 0.004 µM, partner dose 0.04 µM) | 89.6
22 | N.N.[Cl][Pt][Cl] [cisplatin] + Cc1nc(Nc2ncc(C(=O)Nc3c(C)cccc3Cl)s2)cc(N2CCN(CCO)CC2)n1 [dasatanib] (first compound 1.6 µM, partner dose 0.004 µM) | 82
23 | Cn1cc(C2=C(c3cn(C4CCN(Cc5ccccn5)CC4)c4ccccc34)C(=O)NC2=O)c2ccccc21 [Enzastaurin] + O=C(O)c1ccc(-c2c[nH]c3ncc(-c4ccccc4)cc23)cc1C1CCCC1 [GSK650394] (first compound 0.8 µM, partner dose 0.16 µM) | 82.7
